Source: the supplement of paper PMC3334620
Over roughly 33,000 sequences, “E-score (-0.5 to 0.5)” has its median near -0.011; the highest 2% begin near 0.28. The list shows a part of the results.

Each sequence was assayed against T1, Gcr1 (UniProt P07261) (assay: PBM E-score (8-mer binding enrichment) (E-score (-0.5 to 0.5)); higher = stronger / more preferred TF binding; most listed sequences are background and not binding sites). Settings: protein concentration: 100 nM; construct: GST-full length.
T1 sequence: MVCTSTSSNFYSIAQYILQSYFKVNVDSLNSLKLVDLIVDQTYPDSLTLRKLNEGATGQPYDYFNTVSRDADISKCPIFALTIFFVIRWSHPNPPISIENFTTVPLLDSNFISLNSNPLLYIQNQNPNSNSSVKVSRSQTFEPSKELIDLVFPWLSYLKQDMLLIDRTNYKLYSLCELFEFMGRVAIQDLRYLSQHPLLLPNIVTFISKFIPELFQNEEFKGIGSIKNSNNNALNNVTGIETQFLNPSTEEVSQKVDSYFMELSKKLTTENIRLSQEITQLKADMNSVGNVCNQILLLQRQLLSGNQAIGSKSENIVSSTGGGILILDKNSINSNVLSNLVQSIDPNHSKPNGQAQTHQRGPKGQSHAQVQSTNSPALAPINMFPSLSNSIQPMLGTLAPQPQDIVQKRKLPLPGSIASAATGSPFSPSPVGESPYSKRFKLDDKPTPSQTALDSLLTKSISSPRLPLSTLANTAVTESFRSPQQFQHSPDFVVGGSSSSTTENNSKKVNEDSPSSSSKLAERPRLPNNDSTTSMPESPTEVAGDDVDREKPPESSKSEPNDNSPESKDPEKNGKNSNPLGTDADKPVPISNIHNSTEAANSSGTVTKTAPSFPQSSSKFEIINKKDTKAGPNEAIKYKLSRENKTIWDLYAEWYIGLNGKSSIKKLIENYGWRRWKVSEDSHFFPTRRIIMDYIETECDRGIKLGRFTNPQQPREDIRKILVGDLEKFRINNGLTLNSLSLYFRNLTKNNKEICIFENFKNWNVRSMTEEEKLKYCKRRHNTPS
Description: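 Universal 'all 10-mer' protein binding microarrays (Agilent AMADID 015681) probed with GST-tagged S. cerevisiae TFs (full-length or DBD) made by in vitro transcription/translation (PURExpress), about 100-200 nM. Bound TF was detected with fluorescent anti-GST. Each ungapped 8-mer (which stands for itself and its reverse complement) is scored by the PBM enrichment score (E-score), a modified Wilcoxon-Mann-Whitney statistic from -0.5 to +0.5, computed with the Universal PBM Analysis Suite. Scale: above 0.35 generally sequence-specific binding.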

Sequence	PBM E-score
GAAAGTTA	-0.181
ACGTTGTC	-0.0253
CGAGACAG	-0.0925
ATGAGTAG	0.103
ACATCAGT	-0.0797
ATGCGGGC	0.19
CGGTGTTA	0.0269
CAAGAAAC	0.0293
CCCCCCGA	-0.252
ATGGTCCG	0.0284
GTCCTGCA	0.0582
ACATTTCG	0.00397
CGTACAAC	-0.152
ATGCACGC	-0.072
TAGGAGGA	-0.136
CCCTGGCA	-0.00029
ACCTCAAA	0.0958
CGGGAAGC	0.317
GGAACTAC	-0.0927
GAAAAACA	0.112
CACCCGCC	-0.0173
CAGTGTAG	0.0981
ATAACCTC	-0.0967
ATAGTATG	-0.0207
AGGGTGGA	-0.289

Sequence	PBM E-score
ACTTACGA	0.0669
CCCCCGCC	0.0264
GACACAGC	-0.132
GACGAGTA	-0.0843
AGAGTTAT	-0.0127
CTTTTAGA	0.122
CCAAGTAA	0.0134
GTGCCCAC	0.146
AACACCCC	-0.013
GCTTTGCA	-0.15
CTGGCGCA	-0.119
CTTACGGC	-0.137
CCGTCCTC	-0.16
AACCTTTA	-0.0342
AAACCGGA	0.194
TCCAGGCA	0.0543
AGAACGAG	-0.167
CCATCATC	-0.154
AACGCTAG	-0.224
ACGTCTCT	0.0766
CGATGTCA	-0.017
ACCGGGTA	0.0831
AAATATCT	-0.073
CAGCATGA	-0.133
AAGACACA	0.0703

Sequence	PBM E-score
GTCCCGAA	0.024
CGTCCAAC	0.176
CTAGGCTC	-0.0702
ACCGCGTG	-0.0875
ATATCAAC	0.0466
GCTCACAA	-0.0857
ATATATAT	0.0382
CTTTTCTC	-0.0229
ACTCTAGC	0.0304
CTGTGTCC	-0.172
ACCGTCTA	0.12
AACACGCT	-0.0337
AATCATAC	0.00576
GAGCACGC	-0.0146
AAAGTCGA	-0.174
CGCGCAGC	0.202
CTCTGATA	-0.127
CCTATTCG	0.0671
TAGCCCTA	-0.0566
ACTCGGTA	-0.113
AAGATCAG	0.129
CATACTTA	0.0988
GGCTCTCA	-0.0408
CCCTCCGA	-0.0812
AGTGATTA	0.195

Sequence	PBM E-score
AATCTGAC	-0.129
TAATGAGA	-0.128
CCTGGTCC	-0.142
TAGGGCGA	-0.0267
CAAGTCTA	0.0792
ATCCCCAA	0.0543
ATAGAAAT	0.0208
CGACTATC	-0.222
GGTTGCAC	0.00488
GAGCCTCA	-0.0479
CTAAGGAG	0.171
CCCGTATC	0.123
TAGTCACA	-0.155
GCCGGAAA	0.0227
CCCCCGAA	-0.242
AAAGGAAT	0.212
AGCTGGCC	-0.142
GCGATTTA	0.0336
GATAGGGC	-0.111
GAATCTAA	0.241
CATCCTAC	0.0683
AGCCACTG	0.11
CACGGCGC	0.0796
AACACAGA	-0.193
CTGGTTGC	0.288

Sequence	PBM E-score
GAATTAAC	0.0789
CAGTAGAC	-0.134
GGTGGTTA	0.0911
CCGTTGTC	0.0332
GGGCTCGA	-0.0878
AAAATTGG	0.316
ACGGCTAT	-0.169
AAGGACAC	0.0121
ACTGTCGC	-0.161
GGTAAAAA	0.0355
TCTGATAA	0.107
TATCCAAA	0.0902
GCTAAAGA	0.0814
CTCTGTTC	-0.0161
CTAGAAAA	0.114
CGATGGGC	-0.0735
CAATACTC	0.107
ATGAGCTC	0.0604
CACGCGGC	0.0651
GTCGCAAC	0.0865
CTAACATA	-0.048
AAAGATTC	0.19
AAGGTGAC	0.0235
GGATAATA	0.0492
GGTGGAAA	-0.0398

Sequence	PBM E-score
GTGCCTCA	-0.167
GTCCTTTA	-0.00269
CGCGCCAG	0.0313
GGCGGGAC	0.0458
ACCTCGTC	0.00754
ACGTAGAT	-0.0123
GATTCCAC	0.382
AGGACCAC	-0.00932
CACAAAGA	0.0455
GGCTTCGA	0.196
GACGCTTA	0.153
ACACTAGG	-0.176
CTCCATAC	0.0401
GGGTACAC	-0.359
GCGCGTGA	0.0577
AAAACCAC	0.0465
CTCTTGTA	0.0515
CCTCTCTA	-0.113
GGCACGGA	0.0772
GGGAGCAA	-0.0386
AGTCGTAA	-0.133
GCCACGGC	-0.17
GCTCCAGC	0.0257
CATACAGC	-0.26
CCCAAGCA	-0.0163

Sequence	PBM E-score
GAAGCTCC	0.309
GATGAGCC	-0.29
GACGGTAC	-0.0733
CAGATCTA	-0.0866
CACCATGA	0.0189
ATCACATA	-0.0145
CACGGGTC	-0.138
CGCCCCTC	0.11
ACAACGTC	-0.0807
AGGTATGA	0.0361
ATGCAACG	-0.128
ATGATAAC	-0.072
GGGTGTTA	-0.143
AGACGCTG	0.254
GCCGTCCA	0.128
CATCGCAG	-0.106
ATAGATTA	0.0365
GCCCGAAA	0.206
CCGCTTTA	0.207
ACTGATCA	-0.148
AATTGCTC	-0.0937
CGCGAACA	-0.00841
